The supplement of paper PMC7266297
Where a name gives a salt, the structure may show the parent alone. The list shows a part of the results. Single values are uncertain, as repeats are few or missing.

These molecules were tested on KB-V1 (assay: growth inhibition relative to DMSO control (SRB); cervical cancer cells: KB-3-1 is the parent and KB-V1 overexpresses MDR1; SRB is the sulforhodamine B stain; higher = more growth inhibition). Settings: 1 µM; 72 h.
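Further: Read-out is SRB optical density at 490 nm, with the control being wells given 0.5% DMSO vehicle, and compound added one day after cells were plated.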

SMILES | growth inhibition
C=C[C@@]1(C)CC(=O)[C@]2(O)[C@@]3(C)[C@@H](O)CCC(C)(C)[C@@H]3[C@H](O)[C@H](OC(C)=O)[C@@]2(C)O1 [Forskolin] | 10.8%
O=C(Nc1cccc(Cl)c1)c1ccccn1 | 16.9%
CCCC(C)NC(=O)c1ccc(Cl)c(Cl)c1 (stereo not given) | 3.09%
COc1cc2/c(=N/c3ccc(Br)cc3F)nc[nH]c2cc1OCC1CCN(C)CC1 [Vandetanib (ZD6474)] | 41%
COc1cc(OC)c(NC(=O)Nc2cc(C)on2)cc1Cl | < 0%
CO[C@H]1/C=C\C=C(/C)C(=O)NC2=CC(=O)C(NCCN(C)C)=C(C[C@@H](C)C[C@H](OC)[C@H](O)[C@@H](C)/C=C(\C)[C@@H]1OC(N)=O)C2=O [17-DMAG (Alvespimycin) HCl] | 63%
C[C@]12CCC3=C4CCC(=O)C=C4CC[C@H]3[C@@H]1CC[C@@]2(O)CC#N [Dienogest] | 41.8%
CCC(=O)Nc1cccc(Oc2nc(Nc3ccc(N4CCN(C)CC4)cc3OC)ncc2Cl)c1 | < 0%
Nc1nc(OCc2cc(Br)cs2)c2[nH]cnc2n1 [Lomeguatrib] | 8.02%
CCN[C@H]1CN(CCCOC)S(=O)(=O)c2sc(S(N)(=O)=O)cc21 [Brinzolamide] | 0.327%
C[C@@H]1CN(CC(=O)Nc2ccc3c(c2)Cc2cccc(-c4cc(=O)cc(N5CCOCC5)o4)c2S3)C[C@H](C)O1 | 15.3%
O=C(O)/C=C/c1ccc(Cn2ccnc2)cc1 [Ozagrel] | 6.38%
COc1cc(N2CCC(N3CCN(C)CC3)CC2)ccc1Nc1ncc(Cl)c(Nc2ccccc2S(=O)(=O)C(C)C)n1 | 92.1%
CN(C)CC[C@H](CSc1ccccc1)Nc1ccc(S(=O)(=O)NC(=O)c2ccc(N3CCN(Cc4ccccc4-c4ccc(Cl)cc4)CC3)cc2)cc1[N+](=O)[O-] | 37.4%
Cc1ccc(S(=O)(=O)n2c(N)nc3ccccc32)cc1 [ML130 (Nodinitib-1)] | 11.9%
CNC(=O)c1ccc(C)c(-n2c(C)cc(OCc3ccc(F)cc3F)c(Br)c2=O)c1 | 6.25%
O=C1C[C@@H](c2ccc(O)cc2)Oc2cc(O)cc(O)c21 [Naringenin] | 14%
COc1cc(NC(=O)c2ccc(-c3ccc(Cl)cc3)o2)cc(OC)c1 | 50.9%

SMILES | growth inhibition
COc1cc2ncnc(Sc3nnc(C)s3)c2cc1OC | < 0%
COCC(=O)NC/C=C/c1ccc2ncnc(Nc3ccc(Oc4ccc(C)nc4)c(C)c3)c2c1 | 33.8%
COc1ccc(-c2ccc3c(N4CCOCC4)nc(N4C[C@@H](C)O[C@@H](C)C4)nc3n2)cc1CO | 81.5%
O=C(NOC[C@H](O)CO)c1ccc(F)c(F)c1Nc1ccc(I)cc1F | 66.2%
O=C(NC[C@H]1CN(c2ccc(N3CCOCC3=O)cc2)C(=O)O1)c1ccc(Cl)s1 [Rivaroxaban] | 18.5%
Cn1c(=O)cc(N2CCC[C@@H](N)C2)n(Cc2ccccc2C#N)c1=O [Alogliptin] | 30.5%
COc1ccc2c(c1)c(CC(=O)OCC(=O)O)c(C)n2C(=O)c1ccc(Cl)cc1 [Acemetacin] | 1.06%
CCN(CC)CCCCNc1ncc2cc(-c3cc(OC)cc(OC)c3)c(NC(=O)NC(C)(C)C)nc2n1 | 68.6%
C=C1C(=O)O[C@H]2[C@H]1CC/C(C)=C/CC[C@@]1(C)O[C@@H]21 [(-)-Parthenolide] | 43.9%
CC(C)(O)[C@H]1CC[C@@](C)([C@H]2[C@@H](O)C[C@@]3(C)[C@@H]4C[C@H](O[C@@H]5O[C@H](CO)[C@@H](O)[C@H](O)[C@H]5O)[C@H]5C(C)(C)[C@@H](O[C@@H]6OC[C@@H](O)[C@H](O)[C@H]6O)CC[C@@]56C[C@@]46CC[C@]23C)O1 [Astragaloside A] | 25.2%
CC(=O)c1cc([N+](=O)[O-])c(Sc2cccc(Cl)c2Cl)s1 | < 0%
O=c1[nH]cnc2c1ncn2[C@H]1CC[C@@H](CO)O1 [Didanosine] | 23%
Cc1c(C(=O)NN2CCCCC2)nn(-c2ccc(Cl)cc2Cl)c1-c1ccc(I)cc1 | 40.2%
CN1CCN(S(=O)(=O)c2ccc(-c3cnc(N)c(C(=O)Nc4cccnc4)n3)cc2)CC1 | 36.7%
C=CC(=O)N1CCC[C@@H](n2nc(-c3ccc(Oc4ccccc4)cc3)c3c(N)ncnc32)C1 | < 0%
NCC(=O)Nc1ccc(-n2nc(C(F)(F)F)cc2-c2ccc3c(ccc4ccccc43)c2)cc1 | 42.8%
CCNC(=O)[C@H]1O[C@@H](n2cnc3c(N)nc(NCCc4ccc(CCC(=O)O)cc4)nc32)[C@H](O)[C@@H]1O | 14%
